Where a name gives a salt, the structure may show the parent alone. The list shows a part of the results. Single values are uncertain, as repeats are few or missing.
Legend:
[1] = tested on: OVCAR4; assay: log2 surviving fraction (library drug vs vehicle, or drug + carboplatin vs carboplatin alone; relative to plate median); ovarian cancer lines: OVCAR4 is platinum-sensitive and Ov4Carbo platinum-resistant; higher = more cell survival; conditions: library drug concentration 10 µM, 7 days
[2] = tested on: Ov4Carbo; assay: as above; conditions: library drug concentration 10 µM, 7 days

SMILES	log2 surviving fraction ([1]; carboplatin co-treatment 0 µM)	log2 surviving fraction ([1]; carboplatin co-treatment 5 µM)	log2 surviving fraction ([2]; carboplatin co-treatment 0 µM)	log2 surviving fraction ([2]; carboplatin co-treatment 5 µM)
CC(=O)OCC(=O)[C@@]1(O)CC[C@H]2[C@@H]3CCC4=CC(=O)C=C[C@]4(C)[C@@]3(Cl)[C@@H](Cl)C[C@@]21C [Dichlorisone Acetate]	-1.12	-0.88	-0.126	0.224
CCn1cc(C(=O)O)c(=O)c2cc(F)c(N3CCN(C)CC3)cc21 [Pefloxacin mesylate]	0.514	0.847	0.392	-1.53
CC(C)Cc1ccc(C(C)C(=O)O)cc1 (stereo not given) [Ibuprofen (Advil)]	-0.667	0.778	0.733	0.286
CC1(C)S[C@@H]2[C@H](NC(=O)[C@H](N)c3ccc(O)cc3)C(=O)N2[C@H]1C(=O)O [Amoxicillin sodium (Amox)]	-0.471	0.414	-0.0146	0.273
CC(COc1ccccc1)N(CCCl)Cc1ccccc1 (stereo not given) [Phenoxybenzamine HCl]	0.271	0.242	-0.0581	-0.168
CCOCC(O)COc1ccc(NC(=O)CC[S+](C)C)cc1 (stereo not given) [Suplatast tosylate]	0.00699	0.3	-0.00809	-0.374
CN1C(C(=O)Nc2ccccn2)=C(O)c2sc(Cl)cc2S1(=O)=O [Lornoxicam (Xefo)]	0.651	-0.254	0.783	-0.366
CCOC(=O)c1ccc(C#Cc2ccc3c(c2)C(C)(C)CCS3)nc1 [Tazarotene (Avage)]	-0.506	0.154	-0.205	-0.376
CNC[C@H](O)[C@@H](O)[C@H](O)[C@H](O)CO [Meglumine]	0.247	0.797	-0.0393	2.14
Clc1ccc(C(c2ccccc2Cl)C(Cl)Cl)cc1 (stereo not given) [Mitotane (Lysodren)]	0.413	-0.913	0.0344	-0.0164
COc1ccc([C@H]2CNC(=O)C2)cc1OC1CCCC1 [S-(+)-Rolipram]	-0.259	-0.321	-0.406	-1.15
Clc1ccc(COC(Cn2ccnc2)c2ccc(Cl)cc2Cl)c(Cl)c1 (stereo not given) [Miconazole (Monistat)]	-7.99	-7.24	-7.7	-6.51
COc1ccc(CN2CCN(C(c3ccc(F)cc3)c3ccc(F)cc3)CC2)c(OC)c1OC [Lomerizine HCl]	0.0264	0.38	0.177	0.552
CCCCN1CCCCC1C(=O)Nc1c(C)cccc1C (stereo not given) [Bupivacaine hydrochloride (Marcain)]	-0.321	-0.104	-0.277	-0.307
CCCCCCCCCCCCCCCCCCCCCCO [Docosanol (Abreva)]	-0.0645	-0.00338	0.23	0.382
O=C1CN2Cc3c(ccc(Cl)c3Cl)N=C2N1 [Anagrelide HCl]	0.43	-0.0662	-0.532	-0.557
Nc1cc(N2CCCCC2)nc(N)[n+]1[O-] [Minoxidil]	0.912	1.15	0.335	0.236
O=C(NC(Cc1cc(=O)[nH]c2ccccc12)C(=O)O)c1ccc(Cl)cc1 (stereo not given) [Rebamipide]	-0.383	-0.454	0.472	-0.919
Cn1c(CNc2ccc(C(=N)N)cc2)nc2cc(C(=O)N(CCC(=O)O)c3ccccn3)ccc21 [BIBR 953 (Dabigatran etexilate, Pradaxa)]	0.0263	0.344	0.277	-0.225
CC(=O)O[C@@]12CO[C@@H]1C[C@@H](O)[C@@]1(C)C(=O)[C@H](O)C3=C(C)[C@@H](O)C[C@@](O)([C@@H](OC(=O)c4ccccc4)[C@H]21)C3(C)C [10-DAB (10-Deacetylbaccatin)]	-5.19	-4.3	-4.07	-3.75
CCCCCCCCCC(=O)N[C@@H](Cc1c[nH]c2ccccc12)C(=O)N[C@H](CC(N)=O)C(=O)N[C@@H](CC(=O)O)C(=O)N[C@@H]1C(=O)NCC(=O)N[C@@H](CCCN)C(=O)N[C@@H](CC(=O)O)C(=O)N[C@H](C)C(=O)N[C@@H](CC(=O)O)C(=O)NCC(=O)N[C@H](CO)C(=O)N[C@@H]([C@H](C)CC(=O)O)C(=O)N[C@@H](CC(=O)c2ccccc2N)C(=O)O[C@@H]1C [Daptomycin]	-1.67	0.959	0.127	-0.546
O=C1c2c(O)ccc(O)c2C(=O)c2c(NCCNCCO)ccc(NCCNCCO)c21 [Mitoxantrone Hydrochloride]	-9.63	-8.13	-9.3	-8.09
CCOC(=O)[C@H](CCc1ccccc1)N[C@H]1CCc2ccccc2N(CC(=O)O)C1=O [Benazepril hydrochloride]	-0.358	1.26	0.729	0.983
O=P1(NCCCl)OCCCN1CCCl (stereo not given) [Ifosfamide]	-0.209	0.68	-0.0329	0.16
CN(C/C=C/C#CC(C)(C)C)Cc1cccc2ccccc12 [Terbinafine (Lamisil, Terbinex)]	-1.34	0.207	0.205	0.55
CN1CCN(C2=Nc3ccccc3Oc3ccc(Cl)cc32)CC1 [Loxapine Succinate]	-0.0479	0.012	-0.651	-0.532
CCC1(c2ccccc2)C(=O)NCNC1=O [Primidone (Mysoline)]	0.0669	0.792	-0.776	0.0139
CCOC(=O)C1=C(C)NC(C)=C(C(=O)OC)C1c1cccc([N+](=O)[O-])c1 (stereo not given) [Nitrendipine]	-0.63	-0.0158	0.31	-0.104

SMILES	log2 surviving fraction ([1]; carboplatin co-treatment 0 µM)	log2 surviving fraction ([1]; carboplatin co-treatment 5 µM)	log2 surviving fraction ([2]; carboplatin co-treatment 0 µM)	log2 surviving fraction ([2]; carboplatin co-treatment 5 µM)
CC1=CC(=O)c2ccccc2C1=O [Menadione]	-8.36	-0.32	-0.979	0.301
CN(C)C(=O)Oc1cccc([N+](C)(C)C)c1 [Neostigmine bromide (Prostigmin)]	0.0734	-0.117	-0.0207	-0.201
Clc1ccc(CSC(Cn2ccnc2)c2ccc(Cl)cc2Cl)cc1 (stereo not given) [Sulconazole Nitrate]	-2.06	-1.62	-1.75	-1.68
COc1cc2nc(N3CCN(C(=O)c4ccco4)CC3)nc(N)c2cc1OC [Prazosin HCl]	-0.947	0.103	-0.915	0.655
CNC(=C[N+](=O)[O-])NCCSCc1ccc(CN(C)C)o1 [Ranitidine (Zantac)]	0.403	0.551	0.953	0.854
CC[C@H](C)C(=O)O[C@H]1CCC=C2C=C[C@H](C)[C@H](CC[C@@H]3C[C@@H](O)CC(=O)O3)[C@H]21 [Mevastatin]	-1.47	-1.16	-2.15	-2.09
CN1Cc2c(N)cccc2C(c2ccccc2)C1 (stereo not given) [Nomifensine Maleate]	-0.54	-8.72	-0.00667	-2.24
C[C@@H]1C[C@H]2[C@@H]3C[C@H](F)C4=CC(=O)C=C[C@]4(C)[C@@]3(F)[C@@H](O)C[C@]2(C)[C@@]1(O)C(=O)CO [Flumethasone]	0.349	-0.172	1.06	0.338
COC(=O)C1=CO[C@@H](O)[C@@H]2C(CO)=CC[C@H]12 [Genipin]	0.816	1.58	1.48	1.03
N[C@@H](C(=O)N[C@@H]1C(=O)N2C(C(=O)O)=C(Cl)CS[C@H]12)c1ccccc1 [Cefaclor (Ceclor)]	-0.696	0.436	0.0236	0.0144
CNCC(O)c1ccc(O)c(O)c1 (racemic) [DL-Adrenaline]	-0.863	-0.992	-0.00321	0.273
N=C(N)N/N=C/c1c(Cl)cccc1Cl [Guanabenz acetate]	-1.45	-2.45	-2.08	-2.64
CC(=O)NS(=O)(=O)c1ccc(NC(=O)c2ccccc2C(=O)O)cc1 [Phthalylsulfacetamide]	-0.475	0.31	0.591	1.04
Cc1ncc(CO)c(CO)c1O [Pyridoxine hydrochloride]	1.03	0.939	-0.0704	-0.219
Nc1nc2c(ncn2COCCO)c(=O)[nH]1 [Acyclovir (Aciclovir)]	0.291	0.641	0.11	0.762
C[C@H]1C[C@@H]2[C@H]([C@@H](O)C[C@@]3(C)[C@H]2CC[C@]3(O)C(=O)CO)[C@@]2(C)C=CC(=O)C=C12 [Methylprednisolone]	0.515	0.32	0.548	1.14
CCOC(=O)C1=C(C)NC(C)=C(C(=O)OC)C1c1cccc(Cl)c1Cl (stereo not given) [Felodipine (Plendil)]	-0.397	-1.48	0.0166	0.0587
C[N+]1(C)CCOC(O)(c2ccc(-c3ccc(C4(O)C[N+](C)(C)CCO4)cc3)cc2)C1 (stereo not given) [Hemicholinium Bromide]	0.447	-0.424	-0.0637	-0.957
COc1ccc2cc(CCC(C)=O)ccc2c1 [Nabumetone]	-0.00591	0.322	-0.122	-0.00315
CC(C)CC(N)=O [Isovaleramide]	0.498	1.05	0.974	1.15
CC(N/C(=N\C#N)Nc1ccncc1)C(C)(C)C (stereo not given) [Pinacidil]	0.0127	0.123	-0.0944	0.735
CN1CCN2c3ncccc3Cc3ccccc3C2C1 (stereo not given) [Mirtazapine (Remeron, Avanza)]	0.74	0.583	0.0242	0.399
CN(C)[C@@H](CCOc1cccc2ccccc12)c1ccccc1 [Dapoxetine hydrochloride (Priligy)]	-0.742	-0.666	-0.337	-1.05
CCCC1O[C@@H]2C[C@H]3[C@@H]4CCC5=CC(=O)C=C[C@]5(C)[C@H]4[C@@H](O)C[C@]3(C)[C@]2(C(=O)CO)O1 (stereo not given in full) [Budesonide]	0.142	0.968	-0.284	0.131
CCCC(CCC)C(=O)O [Divalproex sodium]	0.0124	-0.147	0.612	0.291
NNC(=O)c1ccncc1 [Isoniazid (Tubizid)]	1.35	-0.946	0.00809	-0.813
CCN[C@H]1CN(CCCOC)S(=O)(=O)c2sc(S(N)(=O)=O)cc21 [Brinzolamide]	0.977	0.497	2.6	1.95

From the supplement of paper PMC8047034
